Measurements: PubChem BioAssay AID1963576 (National Center for Advancing Translational Sciences (NCATS), 2024)
Screen size: about 46,000 compounds; about 60 (0.1%) were called active. Not shown: some 3% with an inconclusive outcome. Calls follow the shape of the dose curve; as a rule, active = well fitted inhibition curve with a large enough effect; inconclusive = small, poorly fitted or top-dose-only effect; inactive = no such curve, though single readings can be large or run the other way. The list shows a part of the results.

Assay: Primary qHTS assay for Inhibitors of ovarian cancer metastasis using an organotypic tumor microenvironment (TME) model. Also: nearly all actives have a fitted effect of over 65% in size.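 As to activity change, negative = inhibition: plate controls were DMSO wells for no effect and tomatine positive control wells for full effect.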
Conditions: SKOV3ip1-GFP adhesion/invasion on 3D omental model, fluorescence; series mostly up to 45.8 µM; activity change, negative = inhibition: at the top concentration
Procedure, shortened: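 Primary human omental fibroblast/mesothelial 3D culture pre-formed 48 h. SKOV3ip1-GFP cells added with compounds (0.36-46 umol/L), incubated 2 h RT/16 h 37 C, fixed; GFP cells quantified at 488/509 nm.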

Activity change, negative = inhibition, inactive:
Cc1ccc(-c2nnc3ccccc3c2C(=O)Nc2cccc(C(F)(F)F)c2)cc1 -5.01%, CC(C)OC(=O)c1c(NC(=O)c2cc3nc(-c4ccccc4)cc(C(F)(F)F)n3n2)sc2c1CCCC2 14.3%, COc1ccc(CCNC(=O)CN2C(=O)COc3ccc(S(=O)(=O)N4CCCCCC4)cc32)cc1OC 2.47%, O=C(Cn1ncc2c3ccccc3n(Cc3ccc(Cl)cc3)c2c1=O)NC1CCCCCC1 2.66%, CCc1ccc(CNC(=O)c2cnc3sc(N(CC)CC)nn3c2=O)cc1 5.48%, CCOC(=O)C1CCCN(S(=O)(=O)c2ccc3c(c2)N(C)C(=O)CC(=O)N3C)C1 (configuration not stated) 0.252%, COc1cc(-c2nnc(SCC(=O)Nc3cccc(C#N)c3)o2)cc(OC)c1OC 2.82%, Cc1ccc(Cl)cc1N1CCN(S(=O)(=O)c2ccc3c(c2)CC(=O)N3C)CC1 4.68%, CCn1c(SCC(=O)Nc2ccc(C)c(C)c2)nnc1-c1nonc1NC(C)=O 2.46%, CC[C@@]1(O)C(=O)OCc2c1cc1n(c2=O)Cc2cc3cc(O)ccc3nc2-1 8.37%, CCc1ccccc1NC(=O)C(=O)NCCc1sc(-c2cccc(C)c2)nc1C -0.146%, Cc1ccc(NC(=O)c2ccc(CN3CC(=O)N4CCCCC4C3=O)cc2)cc1C (configuration not stated) -1.28%, O=c1oc2ccc3ccccc3c2cc1-c1nnc(Nc2cc(C(F)(F)F)ccc2Cl)s1 3.07%, COc1cccc(N2CCN(C(=O)c3nc(-c4ccc(Cl)cc4)n4c3CCCCC4)CC2)c1 9.5%, COCCn1c(SCC(=O)c2c[nH]c3ccccc23)nc2cc(C(=O)NCC(C)C)ccc2c1=O 2.46%, Cc1ccc(O)c(NC(=O)c2nc3nc(C)cc(C(F)F)n3n2)c1 50.2%, Cc1cccc(-c2[nH]c(C(C)(C)C)nc2-c2ccc3nccnc3c2)n1 1.85%, CC[C@H](C)n1cc(C)c2c(C(=O)NCc3c(C)cc(C)[nH]c3=O)cc(-c3ccc(N4CCNCC4)nc3)cc21 -18.8%, Nc1cccc(S(=O)(=O)N2CCCN(S(=O)(=O)c3ccc4c(c3)OCCO4)CC2)c1 -23.8%, CCOC(=O)c1cc2c(=O)n3ccccc3nc2n(CC2CCCO2)c1=NC(=O)c1cc(C)cc(C)c1 (configuration not stated) 0.94%, COC(=O)c1ccc(NC(=O)C2CCN(S(=O)(=O)c3ccc4c(c3)CCCN4C(C)=O)CC2)cc1 -3.22%, COc1cc(NC(=O)CSc2nc3nc(C)c(Cc4ccccc4)c(C)n3n2)cc(OC)c1OC 3.72%, CCc1ccc(CNC(=O)c2cc3c(s2)-c2ccccc2OC3)cc1 -12.8%, Cc1nc(N2CCCC2)ncc1C(=O)NCc1ccccc1Cl 2.07%, CCc1nnc2n1N(C(C)=O)C(c1ccc(C(C)(C)C)cc1)=C(C(C)=O)S2 -11.5%, O=S(=O)(c1cccc(Cl)c1)c1nnn2c1nc(NC1CCCC1)c1sccc12 -22.5%, CCCCOc1ccc(C(=O)NCCc2csc3nc(-c4ccccc4F)nn23)cc1 8.17%, Cc1ccc(Cl)cc1N(C)C(=O)c1cc2ccc3cccnc3c2[nH]1 3.88%, CCNC(=O)CC1C(=O)N(c2ccc(F)cc2)C(=O)N1Cc1ccc(C)cc1 (configuration not stated) -15.5%, CSc1ncc(C(=O)Nc2cccc(Cl)c2C)c(-c2ccccc2)n1 -9.52%, CCN(CC)C(=O)C1=C(C)Nc2nc3ccccc3n2C1c1ccc(Cl)cc1 (configuration not stated) 0.308%, COc1ccccc1CNC(=O)C(Cc1ccccc1)NS(=O)(=O)c1ccc2c(c1)CCN2C(C)=O (configuration not stated) 19.4%, O=C(NCc1ccccn1)c1nn(-c2ccccc2Cl)nc1CO -2.91%, CCn1c(CN2CCN(C)CC2)nc2cc(NC(=O)c3cc(OC)c(OC)c(OC)c3)ccc21 -11.5%, CCOc1ccccc1C(=O)NCC(c1ccc(N(C)C)cc1)N1CCCC1 (configuration not stated) -2.13%, CS(=O)(=O)N1CCC(N2CCN(Cc3ccc(F)cc3)C(=O)C2=O)CC1 3.29%, CCN(CC)C(=O)C1CCCN(c2ncnc3c2nc2n3CCCCC2)C1 (configuration not stated) -0.693%, COCCn1c(CNC(=O)c2cc(OC)c(OC)c(OC)c2)nc2cccnc21 4.1%, CCOc1ccccc1CNC(=O)CN1C(=O)C2CCCCN2c2ccc(C(=O)N(C)C)cc21 (configuration not stated) -2.55%, COC(=O)c1ccccc1NC(=O)CCCS(=O)(=O)c1nc(-c2ccccc2OC)cc(C(F)(F)F)n1 1.43%, CCc1ccc(CNC(=O)c2sc3ncnc(N(C)C4CCCCC4)c3c2C)cc1 -10.2%, COc1ccc(-c2cc(-c3ccc(F)cc3)nc3c2COc2ccccc2-3)cc1 1.99%, Cc1nn(C)c2c1c(C(F)(F)F)cc(=O)n2CC(=O)NC(C)(C)C 7.4%, COc1ccc(CCCc2nnc(SCC(=O)Nc3ccc(Cl)cc3)o2)cc1 0.458%, CCOc1ccccc1C1Nc2ccccc2-c2nnc(SCc3ccccc3)nc2O1 (configuration not stated) -3.98%, Cc1cccc(C(=O)Nc2nnc(S(=O)(=O)N3c4ccccc4CC3C)s2)c1 (configuration not stated) -8.21%, Cc1cc(O)c(CN2CCN(c3ccc(F)cc3)CC2)c2oc(=O)cc(C)c12 -1.12%, COc1ccc(Br)cc1CNC(=O)c1ccc(-n2c(C)cc3c2CCC(C)C3)cc1 (configuration not stated) -3.66%, CCOc1ccc(-c2nnc(SCC(=O)NCCc3ccccc3)nc2-c2ccc(OCC)c(OC)c2)cc1OC 0.725%, Cn1c(CN2CCCCC2)nc2cc(NC(=O)c3ccc(Cl)cc3)ccc21 4.12%, Cc1ccc2[nH]c3c(=O)n(CC(=O)N(C)Cc4ccccc4)ncc3c2c1 1.88%, CCOC(=O)c1cnc(NCc2ccc(Cl)cc2)c2ccccc12 -4.38%, CCOc1ccc(CCNC(=O)c2nn(-c3ccc(OC)cc3)c(=O)c3c2c2ccccc2n3C)cc1OCC 1.36%, CCn1c(=O)cc(OCC(=O)Nc2ccccc2Cl)c2ccccc21 1.99%, Cc1cnc(Nc2ccc(N3CCN(C)CC3)cc2)nc1Nc1cccc(S(=O)(=O)NC(C)(C)C)c1 -28.9%, CCN(CC)C(=O)c1ccccc1NC(=O)c1cccc(S(=O)(=O)N2CCC(C)CC2)c1 4.55%, O=C(NC1CCCCC1)/C(=C/c1ccc(Cl)cc1)NC(=O)c1ccccc1 -13.5%, Cc1cccc(N(C)c2nc3ccc(C)cc3n3nnnc23)c1 -6.79%, Cc1ccc(CNC(=O)C2CCN(c3ncnc4c3nc3n4CCCCC3)CC2)cc1 -0.773%, Cc1ccc(NC(CNS(=O)(=O)c2ccc(Cl)cc2)c2ccccc2)cc1 (configuration not stated) -8.28%, N#Cc1cc2c(=O)n3ccccc3nc2n(-c2nnc(SCc3ccccc3)s2)c1=O 2.71%, Cc1ccc(C(=O)CSc2nnc3ccc4ccccc4n23)cc1 -7.46%, COc1cccc(CNC(=O)c2ccc(CS(=O)Cc3ccc(Cl)cc3)o2)c1 (configuration not stated) 2.82%, O=c1oc2ccc3ccccc3c2cc1-c1nnc(Nc2cccc(F)c2)s1 1.1%, Cc1ccccc1CNC(=O)c1ccc2c(c1)N(Cc1ccccc1)CCS2 -5.12%, Cc1cccc(C)c1Nc1c(-c2ccccc2O)nc2ncccn12 -2.05%, Cc1ccc(CNC(=O)Cn2cc(C(=O)c3ccc(Cl)cc3)c(=O)c3ccc(C)nc32)cc1 -8.28%, CCCCn1c(=O)c2oc3ccccc3c2n(CC(=O)Nc2ccccc2OC)c1=O 0.247%, CCOC(=O)c1c(NC(=O)/C=C/c2ccc(OCC)cc2)sc2c1CCC2 1.57%, Oc1ccc(C=Cc2cc(O)cc(O)c2)cc1 1.64%, CNc1oc(/C=C/c2cc(OC)c(OC)c(OC)c2)nc1C#N 6.98%, Cc1ccc(Cl)cc1-n1ncc2c(N3CCC(C(N)=O)CC3)ncnc21 2.96%

outcome, inactive:
Cc1ccc(OCC(=O)Nc2ccccc2C(=O)OCc2cc(=O)n3c(C)csc3n2)cc1, COCCCNC(=O)Cn1c(=O)n(-c2ccc(Cl)cc2)c(=O)c2c3c(sc21)CCCCC3, COCCCNc1ncnc2c1nnn2C, CCCCC(CC)Cn1c(Oc2ccccc2)nc2c1c(=O)n(C)c(=O)n2C (configuration not stated), CCOc1ccc(-n2c(=O)c3sc4ccccc4c3n(Cc3ccc(F)cc3)c2=O)cc1, Cc1[nH]c2c(C)cccc2c1CCNC(=O)c1cc2ccccc2oc1=O, Cc1ccc(N(CC(=O)Nc2ccc(OC(F)(F)F)cc2)S(=O)(=O)c2c(C)noc2C)cc1, Cc1[nH]c2ccccc2c1C1(O)C(=O)N(Cc2ccc(Cl)cc2)c2ccccc21 (configuration not stated), CCc1cccc(C)c1Nc1c(-c2cccc(O)c2)nc2sccn12, COc1ccc(CC(=O)Nc2sc3c(c2C(=O)Nc2ccc(C)cc2)CCCCC3)cc1, Cc1cc(NC(=O)CSc2ncc(C(=O)Nc3ccccc3)c(=O)n2C)no1, Cc1ccccc1NC(=O)c1ccc(CNS(=O)(=O)c2ccc3c(c2)C(C)(C)C(=O)N3C)cc1, CCOC(=O)CNC(=O)Cn1nc(N2CCN(c3ccccc3)CC2)ccc1=O, CC(=O)c1cccc(NC(=O)c2cc(-c3ccc4c(c3)OCCO4)on2)c1, CCc1ccccc1NC(=O)c1ccc2[nH]c(C)c(C)c2c1, CCOc1ccc(OCC)c(NC(=O)c2c(C)nn(-c3ccccc3)c2-n2cccc2)c1, Cc1ccccc1CN1C(=O)C(O)(CC(=O)c2cccc(Br)c2)c2ccccc21 (configuration not stated), Cc1c(C(=O)NCc2ccccc2)oc2c1-c1[nH]ncc1CC2, COCCCn1c(=N)c(C(=O)NC2CCCC2)cc2c(=O)n3cc(C)ccc3nc21, CCCN(C(=O)Cn1nc(Cc2ccncc2)c2ccccc2c1=O)c1ccccc1C, O=C(Cc1ccc(F)cc1)NCCc1csc(-c2ccc(C(F)(F)F)cc2)n1, O=C(O)CCc1ccc(-c2ccc(Cl)cc2)n1-c1cccc(C(F)(F)F)c1, CCOC(=O)C1CCCN(S(=O)(=O)c2cc(-c3cc(C)no3)ccc2C)C1 (configuration not stated), O=C(CCCn1c(=O)c2cccn2c2cccnc21)Nc1ccccc1Br, CCN1CCOC(=O)C1CC(=O)Nc1cc(Cl)ccc1OC (configuration not stated)
